# Hit rate of the full screen: of about 340,000 compounds, about 6,900 (2%) were called active. Cut-off read from the data, not from the text of the source: active = inhibition above about 30%; inactive = below that, where a call was filed. This is a selection; strong and weak results do not stand in their true shares. Entries without a call were filed so in the source.
# Target: D(2) dopamine receptor (Homo sapiens) (UniProt P14416)
# Assay: HTS Assay for Allosteric Antagonists of the Human D2 Dopamine Receptor: Primary Screen for Antagonists; note: 0% is about no effect
# Conditions: HEK293 TREx D2 cells, calcium flux, dopamine EC80; at 10 µM; stronger effect = higher value
# Summary of the method: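 Tetracycline-induced HEK293 TREx cells expressing D2 receptor forced-coupled to calcium signalling, loaded with no-wash calcium dye. Compounds added and calcium flux read 180 s, then dopamine added at EC80 and read a further 180 s.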
# UniProt P14416, sequence (P14416 whole entry, looked up): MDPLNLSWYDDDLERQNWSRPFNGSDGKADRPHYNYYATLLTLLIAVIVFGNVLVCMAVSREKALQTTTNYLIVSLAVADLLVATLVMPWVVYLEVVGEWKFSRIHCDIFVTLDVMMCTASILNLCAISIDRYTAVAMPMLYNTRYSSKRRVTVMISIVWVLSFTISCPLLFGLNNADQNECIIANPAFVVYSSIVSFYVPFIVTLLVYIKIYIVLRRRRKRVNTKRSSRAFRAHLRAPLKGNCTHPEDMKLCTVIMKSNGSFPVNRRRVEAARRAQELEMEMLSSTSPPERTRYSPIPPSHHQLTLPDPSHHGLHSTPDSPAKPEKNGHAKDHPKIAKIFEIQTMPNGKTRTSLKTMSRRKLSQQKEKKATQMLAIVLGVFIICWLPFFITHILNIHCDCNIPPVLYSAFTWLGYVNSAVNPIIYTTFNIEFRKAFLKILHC
row,SMILES,inhibition
1,Cc1ccc(-n2ncc3c(NCCc4ccccc4)ncnc32)cc1,-0.574%
2,Cc1ccccc1C(=O)Nc1ccccc1C(=O)OCc1cc(=O)n2nc(C3CC3)sc2n1,3.54%
3,Cc1ccc(NC(=O)CN2C(=O)C(c3ccccc3)=NC2(C)C)cc1C,-15.1%
4,COc1cccc(C(=O)Nc2ccc3c(c2)CCCN3C(=O)c2cccs2)c1OC,6.83%
5,CCc1ccc(-n2c(=O)c3cccnc3n2CC(=O)N(CC)c2cccc(C)c2)cc1,-3.67%
6,Cc1cc(NC(=O)c2ccc3c(c2)C(=O)N(C2CCCCC2)C3=O)no1,active: 55.5%
7,COc1ccc2oc(-c3ccc(C)c(NC(=O)c4ccc(N5CCCCC5)c([N+](=O)[O-])c4)c3)nc2c1,0.421%
8,O=C(NCc1nc(-c2ccc(Cl)cc2)no1)c1ccco1,active: 34.1%
9,CC(C)(C)OC(=O)N1CCC(c2c(C(=O)NCCN3CCOCC3)cnn2-c2ccccc2)CC1,-4.02%
10,CCN(CC)C(=O)Cn1c(SCC(=O)Nc2ccc(C)c(C)c2)nc2ccccc21,-1.5%
11,COc1ccc(CNC(=O)CN2CCSc3ccccc32)c(OC)c1,-5.31%
12,CCS(=O)(=O)N1CCC(C(=O)NCCCN2CCN(c3ccccc3F)CC2)CC1,active: 86.4%
13,CCN(c1ccccc1)S(=O)(=O)c1cc(C(=O)Nc2ccc(Br)cc2)ccc1F,9.95%
14,O=C(Cn1c(=O)oc2ccccc21)NCc1ccc(Cl)cc1,10.1%
15,CCOC(=O)c1c(Nc2ccccc2)nnc(-c2ccccc2)c1-c1ccccc1,-10.8%
16,CCCNC(=O)CS(=O)(=O)Cc1nc(-c2ccccc2C)oc1C,active: 39.5%
17,COc1cccc(Cn2c(SCc3ccc(C(=O)N4CCC(C)CC4)cc3)nc3ccncc32)c1,7.97%
18,CCC(Cc1ccccc1)NC(=O)c1csc2c1CCCCC2 (stereo not drawn),-4.66%
19,Cc1cccc(C)c1OCC(O)CN1CCN(c2ccccc2)CC1 (stereo not drawn),active: 86.9%
20,COc1ccc2c(C)cc(SCC(=O)Nc3nsc(-c4ccc(C(C)(C)C)cc4)n3)nc2c1,-10.9%
21,COc1cc(NC(=O)CCCSc2nc(-c3ccco3)cc(C(F)(F)F)n2)cc(OC)c1OC,9.88%
22,COc1cccc(Cn2c(=O)cc(C)c3c(C)nn(-c4ccc(C)cc4)c32)c1,2.96%
23,CCOc1ccc(NC(=O)CN2CCN(C3CCCCC3)C(=O)C2=O)cc1,-16.6%
24,Cc1c(-c2cccc(NC(=O)Nc3ccccc3)c2)nc2ncccn12,21.3%

row,SMILES,inhibition
1,Cc1ccc(S(=O)(=O)N(C)/N=C/c2ccc(C(=O)O)cc2)cc1,active: 30.3%
2,Cc1ccc(-c2cc(-c3coc4ccccc4c3=O)c3c(n2)-c2ccccc2OC3)cc1,-9.26%
3,Cc1ccc(S(=O)(=O)N2CCc3cc(C(=O)NCCc4ccccc4)ccc32)cc1,6.81%
4,Cc1cc(-c2ccc(S(=O)(=O)NCc3ccccc3Cl)s2)on1,1.3%
5,CCS(=O)(=O)N1CCC2(CC1)OC(=O)C(C)=C2C(=O)NCc1ccccc1C,-0.374%
6,CCCCn1c(=O)c2oc3ccccc3c2n(Cc2cccc(C)c2)c1=O,5.43%
7,COc1cc2oc(=O)c(CC(=O)NCc3ccc(OC)c(OC)c3)c(C)c2cc1Cl,-7.65%
8,Cc1ccc(-c2noc(-c3ccc(N4CCCCC4C)c([N+](=O)[O-])c3)n2)cc1 (stereo not drawn),-13.9%
9,COc1ccc(C(C)(C)C)cc1NC(=O)COC(=O)CSCc1c(C)noc1C,active: 36.2%
10,Cc1c(C(=O)Nc2ccc(-c3nc4cc(Cl)ccc4o3)cc2)oc2ccccc12,12.5%
11,Cc1ccccc1NC(=O)CSc1cn(CC(=O)N2CCCC2)c2ccccc12,5.9%
12,COc1ccc(N(C)C(=O)c2nc(-c3cccc(F)c3)n3c2CCCCC3)c(OC)c1,14.9%
13,Cc1c(Cl)cccc1NC(=O)c1cc2sccc2n1Cc1ccc(F)cc1,12.6%
14,Cc1oc(-c2cccc(C(F)(F)F)c2)nc1CN1CCC[C@H]1CO,active: 70.3%
15,COc1cccc(CNC(=O)CCn2c(=O)c3cccn3c3cccnc32)c1OC,1.07%
16,CCOC(=O)c1ccccc1NC(=O)c1ccc2c(Cl)c3c(nc2c1)CCC3,5.23%
17,CCOc1ccc(-c2nc(N)ncc2-c2ccccc2OC)c(O)c1,active: 34.9%
18,CCOc1ccc(CNC(=O)C2CCN(S(=O)(=O)c3ccc4c(ccn4C)c3)CC2)cc1,7.77%
19,Cc1nn(CC(=O)NCC(C)c2ccccc2)c(=O)c2cc3ccccc3n12 (stereo not drawn),0.365%
20,CCOc1ccc(C(=O)Nc2onc3c2CCCC3)cc1,-7.84%
21,O=C(COc1ccccc1)Nc1ccc2nc(SCC(=O)N3CCc4ccccc43)sc2c1,4.07%
22,N#Cc1ccccc1Cn1c(SCC(=O)Nc2ccc(F)cc2)nc2ccccc21,8.52%
23,Clc1cccc(N2CCN(c3c4c(nc5nncn35)CCC4)CC2)c1,4.34%
24,Cn1cnc(S(=O)(=O)N2CCC(C(=O)Nc3ccc(C#N)cc3)CC2)c1,6.65%

# — PubChem BioAssay AID485344 (National Center for Advancing Translational Sciences (NCATS), 2010)
